This is one part of the list.

This assay has as its target T1, OsWOX13 (Oryza sativa, UniProt Q5QMM3 1-267).
T1 sequence: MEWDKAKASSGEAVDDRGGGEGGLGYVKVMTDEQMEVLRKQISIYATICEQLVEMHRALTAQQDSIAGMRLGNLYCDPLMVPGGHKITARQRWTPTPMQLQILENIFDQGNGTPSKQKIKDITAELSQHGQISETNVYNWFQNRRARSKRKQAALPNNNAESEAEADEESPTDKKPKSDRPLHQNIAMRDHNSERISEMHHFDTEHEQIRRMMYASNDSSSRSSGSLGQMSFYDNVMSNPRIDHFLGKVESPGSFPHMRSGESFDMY
Nature of the assay: protein-binding microarray (RPBM); PBS, 2% BSA, 51.3 ng/ul salmon testes DNA, 50 uM zinc acetate, 200 nM TF, 25 C, 1 h; high values mean tight binding. Conditions: protein: recombinant; tags: N-terminal polyhistidine and DsRed monomer fusion (pET32a); label: CyDye5-dUTP incorporated in the synthesized complementary strand; 3' TTTTT single-stranded linker to array surface; dsDNA, one strand shown. In a few lines:
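In PBS with 2% BSA, salmon testes DNA and 50 µM zinc acetate, 200 nM protein was incubated on a custom Agilent array at 25 °C for 1 h and then washed off. The array had been made double-stranded by primer extension with Cy5-dUTP and blocked with 2% BSA. The proteins were transcription factors fused N-terminally to polyhistidine and DsRed, expressed in E. coli BL21-CodonPlus and purified on Ni–NTA. The binding signal is per-feature fluorescence intensity (arbitrary units) from an Axon 4000B scanner.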
“TGCCAATGTGATTGGCTCTTAGGGTAGATGAGGTGCCTTACGGAGTCACCTAGTGCAG”: the binding signal was 33200 fluorescence intensity (a.u.).

Turning to “CCAAAATGATATTTCAAACTTCCAAAATATTAGCATGGCACGGAGTCACCTAGTGCAG”, the binding signal was 4180 fluorescence intensity (a.u.).

“TTTAATTGATTTTGTTTAGAATTTGAGGACATGATCCACGCGGAGTCACCTAGTGCAG”: the binding signal was 62900 fluorescence intensity (a.u.).

On to “GGGCATTTCAATCATGTATTATTTCTTCTATTTTGTTTTGCGGAGTCACCTAGTGCAG”, for which the binding signal is 15800 fluorescence intensity (a.u.).

In the case of “CTAGAATTGAGGTAATGTGGATCAATTTATCACCCGCTGACGGAGTCACCTAGTGCAG”, the binding signal was 6380 fluorescence intensity (a.u.).

In the case of “GAGTTGACATGTTAAATAGTATGTAAGGACAGACGCGGTACGGAGTCACCTAGTGCAG”, the binding signal was 5830 fluorescence intensity (a.u.).

As to “AACGCTTAATTAGTTATGCTCTAATTCTTTGCTTAGTTTTCGGAGTCACCTAGTGCAG”, the binding signal was 22600 fluorescence intensity (a.u.).

Regarding “TTAATTAATCATGTTTCAAAATTTGTATGTTTTCAATTCCCGGAGTCACCTAGTGCAG”, the binding signal was 16800 fluorescence intensity (a.u.).

“AAGTTGATAGGAAACTGTACACTACACGATTGGATGCACACGGAGTCACCTAGTGCAG”: the binding signal was 17600 fluorescence intensity (a.u.).

“CCATTATCAATCATGCTCGATGGGCAAGAGCACTGAAATCCGGAGTCACCTAGTGCAG”: the binding signal was 12700 fluorescence intensity (a.u.).

In the case of “AAAAGTAAATTTGCAATTTGATTTCATACGAGTACAAAAGCGGAGTCACCTAGTGCAG”, the binding signal is 9940 fluorescence intensity (a.u.).

Turning to “TCATGTAAAATTGATGTTACTAAATTTATCATTAATCAAACGGAGTCACCTAGTGCAG”, the binding signal was 11700 fluorescence intensity (a.u.).

As for “AATAATTGCCTTCTTCCGTTCATTTTAGTATGTTAGACTGCGGAGTCACCTAGTGCAG”, the binding signal was 33300 fluorescence intensity (a.u.).

As to “GGCTGATTGACAACTAATCAAACATAACCAATTGACCTTGCGGAGTCACCTAGTGCAG”, the binding signal is 40600 fluorescence intensity (a.u.).

Turning to “GCTGATTTTCGTGCATGGACATGTTTCCCATCAGTATAAGCGGAGTCACCTAGTGCAG”, the binding signal was 11500 fluorescence intensity (a.u.).

As to “ATGTGAATTATATTGGATGATAATTTAATATGTTTGTATTCGGAGTCACCTAGTGCAG”, the binding signal is 8180 fluorescence intensity (a.u.).

As to “CATACTTAATTAACACGTTATAGACAGCGTCTTCAAAACCCGGAGTCACCTAGTGCAG”, the binding signal was 21800 fluorescence intensity (a.u.).

On to “GTAAAAGTTAATTGATTTGTTTATACCCTCAAATAGCCATCGGAGTCACCTAGTGCAG”, for which the binding signal is 58700 fluorescence intensity (a.u.).

Take “TATGAGATATCATTTAATTATATAATAAATATAATGATGTCGGAGTCACCTAGTGCAG”: the binding signal was 4610 fluorescence intensity (a.u.).

As for “TTAAATAGTATAGTCAATTAATAGCTCTAAGATTTAACCACGGAGTCACCTAGTGCAG”, the binding signal was 12800 fluorescence intensity (a.u.).

Turning to “TACTAATTGTGATGCACACAGCATGACAACGGTAGCTAGGCGGAGTCACCTAGTGCAG”, the binding signal is 21400 fluorescence intensity (a.u.).

“TTCGATTTTAATTGGATGTGTACTTGTGTATGATGTATACCGGAGTCACCTAGTGCAG”: the binding signal was 22900 fluorescence intensity (a.u.).

Turning to “CCCCATCAAGACCAATTGGGGCATGCACGAGTTCACCAAGCGGAGTCACCTAGTGCAG”, the binding signal was 27100 fluorescence intensity (a.u.).

For “TGCACTTTGTCTAAATTGATAGCTAAAATTTATTACTCCACGGAGTCACCTAGTGCAG”, the binding signal was 22900 fluorescence intensity (a.u.).

For the sequence “GTGATTGATCTTGCATCCATGGAGTCGGGCTACGGCTTCCCGGAGTCACCTAGTGCAG”, the binding signal was 43300 fluorescence intensity (a.u.).

Regarding “GTGGCTTGATCTCTAGTTAATTACCTCCTCCCATATATGACGGAGTCACCTAGTGCAG”, the binding signal is 4890 fluorescence intensity (a.u.).

Turning to “TAACTAATTGCACATATTACGACTAACTTGTGAGACGAATCGGAGTCACCTAGTGCAG”, the binding signal was 12300 fluorescence intensity (a.u.).

For “CCTTTGTTGTGACAAATGTAAATTGATGTGAGAAATCATGCGGAGTCACCTAGTGCAG”, the binding signal is 6700 fluorescence intensity (a.u.).

“AGAAGGAAATTATTTCTGATGATGTATGGTGCAAGTGGCTCGGAGTCACCTAGTGCAG”: the binding signal is 4920 fluorescence intensity (a.u.).

Consider “ATATAGTTACCAAAATTTGACAGCAAACTAAATGTAGCCACGGAGTCACCTAGTGCAG”, for which the binding signal is 7890 fluorescence intensity (a.u.).

As for “TTTTGACTAATAATCATACTAACTATATCTATACTAAGTACGGAGTCACCTAGTGCAG”, the binding signal was 17500 fluorescence intensity (a.u.).

Turning to “GGCTAACAAGATATGACAGTTTTGTGTACGAAGTGCTAGACGGAGTCACCTAGTGCAG”, the binding signal is 3270 fluorescence intensity (a.u.).

Consider “TTGCTGTTCTCACTAATCAATCAATAATACCTCTCTTTTCCGGAGTCACCTAGTGCAG”, for which the binding signal was 13100 fluorescence intensity (a.u.).

On to “AGCTAATCTAATCATCGCACTAGCTAGCTAAAGCACCCACCGGAGTCACCTAGTGCAG”, for which the binding signal is 10500 fluorescence intensity (a.u.).

As to “TACTCTTAGATTGAACAGGCTTCTGGCTCAAAACTTTTGACGGAGTCACCTAGTGCAG”, the binding signal is 8550 fluorescence intensity (a.u.).

For the sequence “GAGAATTAATTTCTTGGGCTGGGAACTCTTGGTCCGCTGCCGGAGTCACCTAGTGCAG”, the binding signal was 15800 fluorescence intensity (a.u.).

Regarding “CCGTAATCTCAATTAACCCGTGGTAATCGGAAAACCGGATCGGAGTCACCTAGTGCAG”, the binding signal is 22900 fluorescence intensity (a.u.).

On to “TTGTTGTCATTCAATTAGCACTTAAACTTCTGTAGCATAACGGAGTCACCTAGTGCAG”, for which the binding signal is 15400 fluorescence intensity (a.u.).

Consider “TGGGTTAATTGGGTTGGGTGGGCCGCTGCCTATGTGGCGGCGGAGTCACCTAGTGCAG”, for which the binding signal is 24200 fluorescence intensity (a.u.).

As for “AAACCTATGACAATCAACCTTTTGACTGTCATACTAGCTCCGGAGTCACCTAGTGCAG”, the binding signal was 9360 fluorescence intensity (a.u.).

As to “AAATTAGCAAATTGGTTGTCAAAATATTATTACCCAAACACGGAGTCACCTAGTGCAG”, the binding signal is 5170 fluorescence intensity (a.u.).

As to “GAATGTTGATAGGCATGTCATCGATCTTTTCGTTAGAACTCGGAGTCACCTAGTGCAG”, the binding signal is 7550 fluorescence intensity (a.u.).

The record behind these values is publication PMC7819943, “Rice protein-binding microarrays: a tool to detect cis-acting elements near promoter regions in rice”.
